Reference: patent publication US10954269B2, “Anti-inflammatory tripeptides” (Dr. August Wolff Gmbh & Co. KG Arzneimittel, priority 2013, dated 2021)
Part of at least one peptide drawing is inferred or uncertain, most often the ends. Some entries repeat one wording, which the source may state once for all of them. Where a SMILES comes first, the peptide text is derived from it. [ ]: non-standard residue; d: D form. Aib = CC(C)(N)C(=O)O

Tests used:
[1] = system: primary murine T cells; assay: Gene expression of pro-inflammatory cytokines (RT-qPCR) in primary murine T cells; assay type: cell-based, C57BL/6 mice
From the text: (§1) Cells were activated with PMA/Ionomycin and treated with PBS, α-MSH, K(D)PT and Examples 3, 8 and 9, respectively, at a concentration of 10^−9 M. Values are normalized to β-actin and are shown relative to the gene expression in PBS-stimulated cells.
Primary T-cells were isolated from peripheral blood from healthy volunteers and from secondary lymphatic organs from naïve C57BL/6 mice, respectively. The cells were stimulated with phorbol-12-myristate-13-acetate (PMA)/Ionomycin and interferon-gamma (IFN-γ), respectively, for 48 h to activate the cells. The activated cells release pro-inflammatory cytokines. […] Two days after addition of PMA/Ionomycin and IFN-γ, respectively, the induction of IL-1 secretion was determined in the supernatant for proving that the cells are activated. […] The anti-inflammatory properties of the tripeptides were determined 48 h and 72 h following stimulation. […] Using this method the gene expression of pro-inflammatory markers like IL-6, IL-17, IFN-γ and TNF-α was determined.
(§2) In a third experiment murine and human T cells and HaCaT cells were stimulated with PMA/Ionomycin and treated with Examples 14, 15, 16 and 17 at 10^−7 M, 10^−9 M and 10^−11 M. Cytokine concentrations (IFN-γ, IL-17 and IL-10 for T cells and IFN-γ for HaCat) were assessed in the supernatants using the Luminex technology. Expression of genes coding for Il-1β, IL-6 and TNF-α was determined. […]

[2] = system: primary human T-cells; assay: Cytokine secretion on protein level in activated primary human T-cells (13-plex FACS / Luminex, supernatant); assay type: cell-based; conditions: for secretion / expression of pro-inflammatory cytokines (supernatant): activated primary human T-cells; for IL-1 cytokine concentration / IL-2 cytokine concentration / IL-4 cytokine concentration / IL-5 cytokine concentration / IL-6 cytokine concentration / IL-9 cytokine concentration / IL-10 cytokine concentration / IL-12p70 cytokine concentration / IL-13 cytokine concentration / IL-17 cytokine concentration / IL-22 cytokine concentration / TNF-α cytokine concentration / IFN-γ cytokine concentration: 10^−9M
Description: (§3) Primary T-cells were isolated from peripheral blood from healthy volunteers and from secondary lymphatic organs from naïve C57BL/6 mice, respectively. The cells were stimulated with phorbol-12-myristate-13-acetate (PMA)/Ionomycin and interferon-gamma (IFN-γ), respectively, for 48 h to activate the cells. The activated cells release pro-inflammatory cytokines. In parallel a human (HaCaT) keratinocyte cell line was activated with PMA/Ionomycin and IFN-γ, respectively, too. […] At the same time release of anti-inflammatory IL-10 was inhibited. Two days after addition of PMA/Ionomycin and IFN-γ, respectively, the induction of IL-1 secretion was determined in the supernatant for proving that the cells are activated. […] The anti-inflammatory properties of the tripeptides were determined 48 h and 72 h following stimulation. A 13-plex-system based FACS analysis was used for showing the reduced secretion of pro-inflammatory cytokines in the supernatant. Data for IL-1, IL-2, IL-6, IL-12p70 IL-17, IFN-γ and TNF-α are considered to be most relevant. Thus, analysis of the anti-inflammatory properties of the tripeptides is preferably based on the results obtained for these analytes. […] Using this method the gene expression of pro-inflammatory markers like IL-6, IL-17, IFN-γ and TNF-α was determined.
In a third experiment murine and human T cells and HaCaT cells were stimulated with PMA/Ionomycin and treated with Examples 14, 15, 16 and 17 at 10^−7 M, 10^−9 M and 10^−11 M. Cytokine concentrations (IFN-γ, IL-17 and IL-10 for T cells and IFN-γ for HaCat) were assessed in the supernatants using the Luminex technology. Expression of genes coding for Il-1β, IL-6 and TNF-α was determined. […] Moreover, concentrations of pro-inflammatory cytokines IFN-γ and IL-17 was reduced in the supernatants whereas the concentration of anti-inflammatory cytokine IL-10 was increased. […]
For the biological assay two human cell lines of different origin were chosen to allow for translation of the results obtained. A HaCaT cell is a cell type belonging to an immortal human keratinocyte line used in scientific research. Its use in research allows for the characterization of human keratinocyte using a model that is reproducible and representing a human epithelial cell line. In contrast human T-lymphocytes (T-cells) are a type of lymphocyte (itself a type of white blood cell) that play a central role in cell-mediated inflammation/immunity.

[3] = system: human keratinocytes (HaCaT); assay: Gene expression of pro-inflammatory cytokines (RT-qPCR) in human keratinocytes (HaCaT); assay type: cell-based
From the text: as §1, §3, §2

[4] = primary human T-cells stimulated with IFN-γ
[5] = primary human T-cells stimulated with PBS
[6] = primary human T-cells stimulated with PMA/Ionomycin

For CC(C)(NC(=O)[C@@H]1CCCN1C(=O)[C@@H](N)CCCCN)C(=O)O [Example 8, H-(L)-Lys-(L)-Pro-Aib-OH] (H-Lys-Pro-[Aib]-OH), the “mRNA expression of IL-6, IL-17, IFN-γ and TNF-α” value [1] was “reduced”, the “secretion / expression of pro-inflammatory cytokines (supernatant)” value [2] was “stronger anti-inflammatory effects” and the IL-1 cytokine concentration [2, 4] was 277.33 pg/mL. For the same compound, the IL-2 cytokine concentration [2, 4] was 199.66 pg/mL, the IL-4 cytokine concentration [2, 4] was 117.31 pg/mL and the IL-5 cytokine concentration [2, 4] was 91.09 pg/mL. It also gave an IL-6 cytokine concentration [2, 4] of 95.92 pg/mL, an IL-9 cytokine concentration [2, 4] of 88.6 pg/mL and an IL-10 cytokine concentration [2, 4] of 106.23 pg/mL. For the same compound, the IL-12p70 cytokine concentration [2, 4] was 688.46 pg/mL, the IL-13 cytokine concentration [2, 4] was 75.98 pg/mL and the IL-17 cytokine concentration [2, 4] was 118.21 pg/mL. It also gave an IL-22 cytokine concentration [2, 4] of 22151.4 pg/mL, a TNF-α cytokine concentration [2, 4] of 171.54 pg/mL and an IFN-γ cytokine concentration [2, 5] of 0 pg/mL. For the same compound, the IL-1 cytokine concentration [2, 5] was 253.83 pg/mL, the IL-2 cytokine concentration [2, 5] was 237.8 pg/mL and the IL-4 cytokine concentration [2, 5] was 117.83 pg/mL. The IL-5 cytokine concentration [2, 5] was 61.66 pg/mL, the IL-6 cytokine concentration [2, 5] was 72.63 pg/mL and the IL-9 cytokine concentration [2, 5] was 93.72 pg/mL. It also gave an IL-10 cytokine concentration [2, 5] of 114.3 pg/mL, an IL-12p70 cytokine concentration [2, 5] of 94.18 pg/mL and an IL-13 cytokine concentration [2, 5] of 67.68 pg/mL. For the same compound, the IL-17 cytokine concentration [2, 5] was 116.91 pg/mL, the IL-22 cytokine concentration [2, 5] was 2211.56 pg/mL and the TNF-α cytokine concentration [2, 5] was 132.37 pg/mL. For the same compound, the IFN-γ cytokine concentration [2, 6] was 1774.79 pg/mL, the IL-1 cytokine concentration [2, 6] was 69689.2 pg/mL and the IL-2 cytokine concentration [2, 6] was 12000 pg/mL. For the same compound, the IL-4 cytokine concentration [2, 6] was 204.5 pg/mL, the IL-5 cytokine concentration [2, 6] was 215.28 pg/mL and the IL-6 cytokine concentration [2, 6] was 2131.81 pg/mL. It also gave an IL-9 cytokine concentration [2, 6] of 183.92 pg/mL, an IL-10 cytokine concentration [2, 6] of 4027.17 pg/mL and an IL-12p70 cytokine concentration [2, 6] of 867.26 pg/mL. For the same compound, the IL-13 cytokine concentration [2, 6] was 475.53 pg/mL, the IL-17 cytokine concentration [2, 6] was 2943.03 pg/mL and the IL-22 cytokine concentration [2, 6] was 24669.3 pg/mL. For the same compound, the TNF-α cytokine concentration [2, 6] was 3600 pg/mL and the “gene expression of pro-inflammatory cytokines” value [3] was “reduction”.
In the case of C[C@@H](O)[C@@H](C(=O)O)N(C)C(=O)[C@H]1CCCN1C(=O)[C@H](CCCCN)N(C)C [Example 3, N^α,N^α-dimethyl-(L)-Lys-(D)-Pro-N^α-methyl-(L)-Thr-OH], the “mRNA expression of IL-6, IL-17, IFN-γ and TNF-α” value [1] is reported as “reduced”, the “secretion / expression of pro-inflammatory cytokines (supernatant)” value [2] is reported as “stronger anti-inflammatory effects” and the IL-1 cytokine concentration [2, 4] is reported as 191.46 pg/mL. It also gave an IL-2 cytokine concentration [2, 4] of 144.56 pg/mL, an IL-4 cytokine concentration [2, 4] of 132.38 pg/mL and an IL-5 cytokine concentration [2, 4] of 95.22 pg/mL. The IL-6 cytokine concentration [2, 4] was 65.54 pg/mL, the IL-9 cytokine concentration [2, 4] was 103.58 pg/mL and the IL-10 cytokine concentration [2, 4] was 87.89 pg/mL. For the same compound, the IL-12p70 cytokine concentration [2, 4] was 687.61 pg/mL, the IL-13 cytokine concentration [2, 4] was 75.98 pg/mL and the IL-17 cytokine concentration [2, 4] was 110.07 pg/mL. It also gave an IL-22 cytokine concentration [2, 4] of 0 pg/mL, a TNF-α cytokine concentration [2, 4] of 180.13 pg/mL and an IFN-γ cytokine concentration [2, 5] of 450.32 pg/mL. For the same compound, the IL-1 cytokine concentration [2, 5] was 233.69 pg/mL, the IL-2 cytokine concentration [2, 5] was 317.62 pg/mL and the IL-4 cytokine concentration [2, 5] was 161.66 pg/mL. The IL-5 cytokine concentration [2, 5] was 42.46 pg/mL, the IL-6 cytokine concentration [2, 5] was 61.21 pg/mL and the IL-9 cytokine concentration [2, 5] was 111.16 pg/mL. It also gave an IL-10 cytokine concentration [2, 5] of 47.15 pg/mL, an IL-12p70 cytokine concentration [2, 5] of 103.5 pg/mL and an IL-13 cytokine concentration [2, 5] of 88.14 pg/mL. For the same compound, the IL-17 cytokine concentration [2, 5] was 153.86 pg/mL, the IL-22 cytokine concentration [2, 5] was 2185.25 pg/mL and the TNF-α cytokine concentration [2, 5] was 190.58 pg/mL. The IFN-γ cytokine concentration [2, 6] was 1182.71 pg/mL, the IL-1 cytokine concentration [2, 6] was 69689.2 pg/mL and the IL-2 cytokine concentration [2, 6] was 12000 pg/mL. It also gave an IL-4 cytokine concentration [2, 6] of 237.39 pg/mL, an IL-5 cytokine concentration [2, 6] of 234.91 pg/mL and an IL-6 cytokine concentration [2, 6] of 1965.67 pg/mL. It also gave an IL-9 cytokine concentration [2, 6] of 166.27 pg/mL, an IL-10 cytokine concentration [2, 6] of 3588.06 pg/mL and an IL-12p70 cytokine concentration [2, 6] of 766.66 pg/mL. It also gave an IL-13 cytokine concentration [2, 6] of 400.36 pg/mL, an IL-17 cytokine concentration [2, 6] of 2796.62 pg/mL and an IL-22 cytokine concentration [2, 6] of 24185.6 pg/mL. The TNF-α cytokine concentration [2, 6] was 3600 pg/mL and the “gene expression of pro-inflammatory cytokines” value [3] was “reduction”.
